# Measurements from the supplement of paper PMC3334620.
# The full ranking holds about 33,000 sequences; the median of “E-score (-0.5 to 0.5)” is about -0.043, and the highest 2% start at about 0.37. Some of the results follow.
# Biological target: T1, Upc2 (UniProt Q12151)
# T1 sequence: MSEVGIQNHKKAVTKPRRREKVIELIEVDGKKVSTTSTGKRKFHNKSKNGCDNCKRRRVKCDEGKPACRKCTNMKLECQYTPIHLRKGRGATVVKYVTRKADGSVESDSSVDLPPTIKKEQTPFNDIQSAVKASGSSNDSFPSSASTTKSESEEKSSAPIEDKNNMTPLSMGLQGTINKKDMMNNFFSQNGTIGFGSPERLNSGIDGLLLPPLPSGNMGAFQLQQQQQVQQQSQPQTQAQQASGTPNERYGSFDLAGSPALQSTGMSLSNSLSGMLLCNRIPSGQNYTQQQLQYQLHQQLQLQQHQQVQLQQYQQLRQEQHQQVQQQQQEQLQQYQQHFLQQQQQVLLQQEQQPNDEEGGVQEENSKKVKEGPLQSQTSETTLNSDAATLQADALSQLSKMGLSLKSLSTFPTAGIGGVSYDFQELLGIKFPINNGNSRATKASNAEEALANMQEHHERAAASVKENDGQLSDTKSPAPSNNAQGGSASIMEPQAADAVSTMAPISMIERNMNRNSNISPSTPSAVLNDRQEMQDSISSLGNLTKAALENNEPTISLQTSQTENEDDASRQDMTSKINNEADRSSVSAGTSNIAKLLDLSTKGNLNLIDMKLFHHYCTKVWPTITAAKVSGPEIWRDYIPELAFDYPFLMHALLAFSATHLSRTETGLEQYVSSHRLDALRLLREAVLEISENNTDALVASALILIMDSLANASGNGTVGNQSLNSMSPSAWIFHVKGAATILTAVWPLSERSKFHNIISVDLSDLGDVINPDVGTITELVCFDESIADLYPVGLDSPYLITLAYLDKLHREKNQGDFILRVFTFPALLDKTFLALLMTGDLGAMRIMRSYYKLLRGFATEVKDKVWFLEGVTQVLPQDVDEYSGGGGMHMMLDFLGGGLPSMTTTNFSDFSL
# Assay: PBM E-score (8-mer binding enrichment) (E-score (-0.5 to 0.5)); higher = stronger / more preferred TF binding; most listed sequences are background and not binding sites
# Conditions: protein concentration: 200 nM; construct: GST-full length
# Outline: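 The E-score, a modified Wilcoxon-Mann-Whitney statistic, was computed by the Universal PBM Analysis Suite for every ungapped eight-base word pooled with its reverse complement. Scans behind it were normalised with masliner after bound GST-tagged yeast transcription factors were detected with fluorescent anti-GST. The proteins, at about 100-200 nM, had been applied to universal all-10-mer Agilent arrays made double-stranded by primer extension.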
row,Sequence,PBM E-score
1,AAAATTAA,-0.0345
2,CTTTCACA,-0.0433
3,TACGTGAA,0.282
4,CTAAGGGA,0.0198
5,AGCGGTCC,-0.127
6,AATGCCTG,-0.12
7,CTACTCAG,-0.28
8,AGACATAT,-0.0472
9,CACTCGTC,0.0141
10,GAACTACA,-0.0134
11,GTGATCCA,-0.191
12,AAAGCCGG,0.00256
13,CCCGACGG,0.0878
14,ATAAGTTC,0.00948
15,TATCGCCA,-0.105
16,CATCACAA,0.0119
17,TATCGACA,0.0753
18,ACAAGTCT,-0.254
19,GCCCTTAA,0.0503
20,GAAGGGTC,-0.129
21,AGCGGCGC,-0.193
22,CGACATCA,0.137
23,GGGAGCCA,-0.222
24,AGATAGTA,-0.0283
25,ATCAGTCA,0.0344

row,Sequence,PBM E-score
1,ATGAACTC,-0.154
2,CTCTTAGC,-0.0328
3,GAATAACA,0.096
4,AGGTTTGG,-0.0777
5,ACAAGTCC,-0.257
6,ATCTAGAT,0.0266
7,CAGTGCCA,-0.161
8,ACCGGAGT,0.0153
9,GGCTTTAC,0.234
10,AGGAGAAA,-0.271
11,CTCTATGA,-0.181
12,AAATTGCG,0.219
13,AATAGACA,-0.187
14,GACCACTA,-0.152
15,GTGTACAA,0.0763
16,GAACGGTC,0.249
17,TCTTTTCA,-0.155
18,ACGCTCCC,-0.175
19,AAGCCATA,-0.0666
20,CTATGTAC,0.131
21,GAGACGGC,-0.0958
22,CGGCACCA,-0.0913
23,GATTAAGA,0.0715
24,AATACCAA,-0.146
25,GGATCAGA,-0.208

row,Sequence,PBM E-score
1,AACTAATC,0.0158
2,ATTACCAC,-0.0842
3,AGGAAAAT,-0.0665
4,AATATATC,-0.0702
5,GAAGCTTA,0.178
6,AACTGACA,-0.152
7,CTATCATC,-0.0784
8,ACTGAGGG,-0.24
9,CGGTCCAA,-0.129
10,ATAAAGCA,-0.244
11,ATATCAAG,-0.00177
12,CATACAGG,-0.117
13,AGATGTAA,-0.0449
14,CCCCTGAG,-0.139
15,AATCGTTA,0.292
16,TCCACGGA,-0.137
17,ATATGCCC,-0.307
18,AGGAACTA,-0.0131
19,ATGCCAGG,-0.193
20,ATAGGAAG,-0.0435
21,CGTGATCA,-0.083
22,ATCATGGC,-0.177
23,ACATGTCG,0.0614
24,GGCGCTGA,-0.342
25,AGTCGTCC,-0.111

row,Sequence,PBM E-score
1,ACTGCCAC,-0.119
2,AAGCATAC,0.173
3,GTTTTCAA,0.123
4,GGAGCATA,0.0122
5,CCGCCACG,-0.103
6,CACCGTTC,0.28
7,ACTATGGG,-0.149
8,ACTTGGTC,0.0342
9,GGGTGCAA,-0.143
10,TAAAGATA,0.126
11,GGGAAAGA,-0.12
12,GTCAATGA,-0.239
13,CTGAGATA,-0.0826
14,ACTGAGCT,-0.195
15,AAAGACTT,0.0234
16,CAAGGCGC,-0.243
17,AAAATGCG,0.256
18,TAGTAAAA,0.0664
19,ATCAAGTA,-0.174
20,CCATACGA,0.473
21,ACAATCTG,-0.262
22,AGTATGTA,0.0299
23,ACACCGGC,0.0266
24,CGACTGTA,0.0412
25,TATCCTAA,-0.0589

row,Sequence,PBM E-score
1,AAGCAGTC,-0.0752
2,CTTCACTA,-0.219
3,ACGCTAGA,-0.146
4,ACCGAGGA,0.262
5,TAGTGCCA,-0.208
6,GATGACCC,-0.172
7,ACTCGAAC,0.119
8,AGACTGCG,-0.17
9,CCAGCTCC,-0.217
10,GAATTGCA,-0.0427
11,ATACCTAC,0.0942
12,GCTTGAGA,-0.146
13,AGTACGGC,0.299
14,ATAGTTTA,0.0556
15,CTAGACGA,0.24
16,ACACCGGG,-0.2
17,AGACTGGG,-0.146
18,TATTCTGA,-0.073
19,CTATGGAG,-0.173
20,AAGTTTAC,0.212
21,GCTTCTAC,0.0726
22,AGCAATGG,-0.0752
23,ATGGTGAG,-0.171
24,GACCAGTC,-0.288
25,AGGACAGA,-0.347

row,Sequence,PBM E-score
1,CCGGTGAC,-0.0955
2,ACTAGCAC,-0.142
3,CTCCGATA,-0.201
4,AGTTGTAA,-0.0253
5,ATTTTATA,0.0653
6,CCTCCCAA,-0.0847
7,ACGCTGCT,0.0566
8,GAACTAGA,-0.0571
9,GGAGGAGA,-0.146
10,CAAATTGC,0.0476
11,CTTGAATA,-0.115
12,AACCGTCA,-0.268
13,CTGGCGAC,-0.322
14,AACCTTCG,0.125
15,CGTCTCTA,-0.252
16,ATATGCTA,-0.00731
17,GCAAATAA,-0.0294
18,AAGTAAAG,-0.16
19,TAGGTAGA,-0.157
20,ATTCCCAG,0.0557
21,CCTTCAAA,-0.166
22,TTGTCAAA,0.0127
23,GTACTCAC,0.039
24,CCTAACAA,-0.0359
25,CATCGCTC,0.0855

row,Sequence,PBM E-score
1,CAGGCTGC,-0.339
2,GTATTAAA,0.127
3,GGATCGCA,0.134
4,CCAGGAGA,-0.21
5,CATGGAGA,-0.287
6,CCTGATAA,-0.0374
7,CCCCTAAA,-0.146
8,TAACGGTA,0.225
9,TACTTTGA,-0.0619
10,GGGTCCGA,0.0594
11,CCAAGTGA,-0.159
12,ATCGCACC,0.0584
13,AAGGTTCC,-0.228
14,GGCGTACC,0.234
15,ATTAGGAG,-0.167
16,CCGATAAC,0.103
17,ACAGTGAT,0.155
18,AATGCGGG,-0.105
19,ATGGAAGC,-0.205
20,CAGACATC,-0.0749
21,GTTTTGAA,-0.00014
22,GGCGGTAA,0.155
